Among the data in PMC10933337, “RhoGDI phosphorylation by PKC promotes its interaction with death receptor p75^NTR to gate axon growth and neuron survival” (EMBO Reports, 2024) are binding values, retold here.

Protein sequences, listed by entry. Tags and fused reporters are not part of them.
UniProt P61586: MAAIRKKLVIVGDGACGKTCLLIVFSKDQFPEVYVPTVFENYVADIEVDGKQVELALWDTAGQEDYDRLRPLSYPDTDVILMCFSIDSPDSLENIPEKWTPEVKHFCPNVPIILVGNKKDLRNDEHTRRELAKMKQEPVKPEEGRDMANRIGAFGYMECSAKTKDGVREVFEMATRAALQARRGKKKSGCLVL

The target in experiment [1] is T1, mouse Flag-RhoGDI S96A (mouse) (UniProt Q99PT1).
T1 sequence: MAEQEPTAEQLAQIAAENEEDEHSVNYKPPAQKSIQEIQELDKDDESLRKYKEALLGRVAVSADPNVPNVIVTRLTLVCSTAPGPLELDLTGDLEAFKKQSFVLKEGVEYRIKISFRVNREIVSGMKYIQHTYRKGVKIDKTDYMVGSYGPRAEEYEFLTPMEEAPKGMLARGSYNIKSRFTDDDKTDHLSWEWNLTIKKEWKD
In words: co-IP; Flag-RhoGDI constructs and RhoA in NIH3T3 cells, which lack endogenous p75NTR; RhoGDI immunoprecipitates probed for bound RhoA.

The target in experiment [2] is T2, mouse Flag-RhoGDI wild type, transfected in NIH3T3 cells (mouse) (UniProt Q99PT1).
T2 sequence: T1 sequence with A96S
The experiment is described as above.

For experiment [3], the target named is T3, mouse Flag-RhoGDI S34D (mouse) (UniProt Q99PT1).
T3 sequence: T1 sequence with S34D, A96S
The description is as above.

The target in experiment [4] is T4, mouse Flag-RhoGDI S34A (mouse) (UniProt Q99PT1).
T4 sequence: T1 sequence with S34A, A96S
The description is as above.

In experiment [5] the target is T5, mouse Flag-RhoGDI S34D/S96A double mutant (mouse) (UniProt Q99PT1).
T5 sequence: T1 sequence with S34D
In words: co-IP; as a5, with p75NTR co-expressed in the NIH3T3 cells; Flag-RhoGDI immunoprecipitates probed for bound HA-RhoA.

Experiment [6] deals with T2, mouse Flag-RhoGDI wild type, transfected in NIH3T3 cells (mouse). Described as above.
The target of experiment [7] is T3, mouse Flag-RhoGDI S34D (mouse). Described as above.

Where a chain is given by its changes, count along the chain named. These are yes or no findings as the source states them, for the method shown. In cells and extracts the contact can be indirect. Some binding calls cover weakened binding; strength is not graded here. Where a sequence is shown, tags or fusion partners need not be part of it.

With HA-RhoA (from UniProt P61586 1-193), the binding entry in experiment [1], in experiment [2], in experiment [3], in experiment [4], in experiment [5] and in experiment [6] was “binds” each time. In experiment [7], the binding result is recorded as “no binding (condition: with p75NTR co-expressed)”.
